Laboratory results reported in PubChem BioAssay AID1345083 (National Center for Advancing Translational Sciences (NCATS), 2018).
Hit rate of the full screen: of about 94,000 compounds, about 6,200 (6.6%) were called active. Inconclusive means that the source gave no clear call. Such entries were picked first, then a sample of the others. The call rests on the fitted dose curve; in most records, active means well fitted inhibition curve with a large enough effect; inconclusive means small, poorly fitted or top-dose-only effect; inactive means flat fitted curve, though single readings scatter. Where the call is inconclusive, the potency comes from a doubtful curve fit.

Assay: Cytotoxic Profiling in HEK 293 Cell Line of Diverse Libraries Using Quantitative High-Throughput Screening; further: nearly all actives have a fitted effect of over 60% in size
Settings: HEK 293 viability, ATP luminescence (CellTiter-Glo), 48-72 h; activity change, negative = cytotoxicity: at 115 µM (top of the series) unless noted; series mostly up to 115 µM
How it was run: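 Read-out: CellTiter-Glo ATP luminescence. Cells: HEK 293, 250 cells/well. Exposure: 48 or 72 hr, 37 degree Celsius.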
On the % scale 0 is the no-effect control and ±100 the full control effect; potency means the concentration at half of the fitted maximal effect; tags describe the fitted curve by direction and shape.

Structure (SMILES)	Potency	outcome	activity change, negative = cytotoxicity
CN(C)c1cccc(C(=O)NC2CCN(c3cc(-c4ccccc4)[nH]n3)C2)c1 (stereo not given)	inconclusive: 50.1 µM [inhibitor, partial curve, poor fit]	–	–
Cc1cc(C(=O)N2C[C@@H](CO)[C@H](c3ccncc3)C2)c(C)o1	–	inactive	–
O=C1N(C2CCCCC2)C[C@H]2CN(S(=O)(=O)c3ccccc3)CCN12	inconclusive: 89.1 µM [inhibitor, partial curve]	–	–
O=C(c1ccc2cc[nH]c2c1)N1CCCN(c2cc(-c3ccc(F)cc3)[nH]n2)CC1	active: 39.8 µM	–	–
Cc1nn2c(c1-c1ccnn1C(C)C)N(Cc1ccc(O)cc1)CCC2	inconclusive: 100 µM [inhibitor, partial curve, poor fit]	–	–
C[S+](=O)([O-])N1CC2(CCN(Cc3cccnc3)C2)Cc2ccccc21 (stereo not given)	–	–	inactive: -21.7%
O=C(Nc1cccc(-c2nnc3n2CCCC3)c1)Nc1ccccc1F	–	–	inactive: -10.8%
COc1ccccc1-c1cccc(CN2CCC(NC(=O)c3ccccn3)CC2)c1	inconclusive: 56.2 µM [inhibitor, partial curve, poor fit]	–	–
C=CCOC(=O)C1=C(C)N=C2SC=C(CC(=O)N3CCCC3)N2C1c1cccc(OC)c1OC (stereo not given)	–	–	inactive: -9.24%
CC1(CNc2ccccc2)COc2ccc(C(=O)NCc3cccnc3)cc2N1 (stereo not given)	inconclusive: 89.1 µM [inhibitor, partial curve]	–	–
COC1CCC(C(=O)N2CCc3c(n(CCOc4ccccc4)n(-c4ccccc4)c3=O)C2)CC1 (stereo not given)	–	–	inactive: -7.19%
O=C1[C@@H]2C[C@@H](O)CN2C2(CN(Cc3cccc(F)c3)C2)C(=O)N1Cc1ccccc1F	–	–	inactive: -9.9% [at 172 µM]
COCCNC(=O)[C@@H]1Cc2cn(Cc3ccccn3)c3cccc(c23)[C@H](CC(C)C)N1	active: 28.2 µM	–	–
COCCN1C(=O)[C@@H]2C[C@@H](CN2Cc2ccc(OC(F)(F)F)cc2)Oc2ccccc21	inconclusive: 50.1 µM [inhibitor, partial curve, poor fit]	–	–
Cc1nnc2ccc(N3CCCC(NC(=O)C4CC4)C3)nn12 (stereo not given)	–	–	inactive: 4.3% [at 172 µM]
CCN1C(=O)C2(CCN(S(=O)(=O)c3ccc(Cl)cc3C)CC2)c2ccccc21	active: 10 µM	–	–
NC1CC(c2cc(N3CCC(OCc4ccccc4)CC3)ncn2)C1 (stereo not given)	inconclusive: 25.1 µM [inhibitor, full curve, poor fit]	–	–
Cc1nc(C)c(CC(=O)N2CCOC(C(F)(F)F)C2)c(=O)[nH]1 (stereo not given)	–	inactive	–
O=C(NC1CCCCCC1)c1csc(N2CCN(c3ccccc3)CC2)n1	inconclusive: 44.7 µM [inhibitor, partial curve, poor fit]	–	–
O=C(c1ccccn1)N1CCC2(CC(c3cccc(C(F)(F)F)c3)=NO2)C1 (stereo not given)	inconclusive: 100 µM [inhibitor, single point]	–	–
